Data published in the supplement of paper PMC10126150.
Values marked as one replicate rest on one cluster of the flow cell; about a third of the high ones do not repeat.

Tested on: ATP
Assay: switch fluorescence ratio, 500 uM ATP over buffer (Cy3 cluster intensity, sum of 5 cycles each) (fold (ratio)); higher = stronger signal-on switching upon ATP binding; sequences stand for … in TCGTCGGCAGCGTCAGATGTGTATAAGAGACAGTTTTTTTTTTTTTTTTTTTTTTTTT…TC
Details: aptamer strand: ATP DNA aptamer (quencher-CACCTGGGGGAGTATTGCGGAGGAAGG + anchor), 100 nM annealed; ATP concentration: 500 uM; one replicate
Procedure, shortened: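 For every switch-domain sequence, the fluorescence ratio is the mean of per-cluster values, each being summed target-cycle Cy3 intensity over summed buffer-cycle Cy3 intensity. Clusters outside 100-1000 RFU were excluded. On a modified Illumina MiSeq flow-cell, the Cy3-labelled switching-strand clusters were annealed to 100 nM quencher-labelled ATP aptamer, imaged in selection buffer and then after 15 min with 500 uM ATP at 22 °C. Five such cycles were run, with NaOH stripping and re-annealing between them.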
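Note: ATP exposure 15 min at 22 °C before imaging.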

Sequence | switch fluorescence ratio
GCGGTTCAAG | 0.982
GCGGTTTGGT | 0.953
GCGGTTTGTT | 0.962
GCGTAAGTTA | 0.985
GCGTACGTTT | 0.984
GCGTAGTACC | 1.04
GCGTCAACCG | 0.961
GCGTCAATGT | 1.13
GCGTCACATC | 1.11
GCGTCACATT | 1.01
GCGTCCAGAG | 1.01
GCGTCGAGT | 1.01
GCGTCGATTG | 1.01
GCGTCGTTTG | 0.998
GCGTGAAAGT | 0.943
GCGTGAAGCA | 1.05
GCGTGCGGAC | 1.04
GCGTGCGGG | 1.03
GCGTGCTGTT | 0.986
GCGTGGCTTA | 1.04
GCGTGTAAA | 1.05
GCGTGTGTGG | 0.992
GCGTGTTCA | 1
GCGTTAAATG | 0.987
GCGTTACTCG | 1.11

Sequence | switch fluorescence ratio
GCGTTAGATA | 1.05
GCGTTCGCTA | 1.06
GCGTTCGGTT | 0.997
GCGTTTATAA | 1.02
GCGTTTGAAG | 1
GCGTTTGTCT | 1.02
GCGTTTGTGT | 0.958
GCGTTTTGCT | 1.02
GCTAAACGAA | 1.02
GCTAAGAGGT | 1.01
GCTAATACAG | 1.01
GCTAATCTC | 1.1
GCTAATTAAG | 0.98
GCTACCATCA | 1.02
GCTACCGGAC | 1.73
GCTACGGT | 1.01
GCTACTCTCA | 1.17
GCTACTTCGG | 0.953
GCTACTTCTG | 0.998
GCTAGAATCA | 0.975
GCTAGATGG | 1.02
GCTAGCAACT | 1.01
GCTAGCGAGC | 0.989
GCTAGCTATT | 1.07
GCTAGGCCGG | 1.02

Sequence | switch fluorescence ratio
GCTATAGTTG | 1.05
GCTATATAT | 0.996
GCTATGCCTG | 0.997
GCTATGTTTT | 0.971
GCTATTCTTC | 0.967
GCTATTTTGT | 0.986
GCTCACGGGC | 1.09
GCTCACGTGA | 1
GCTCAGGATC | 1.03
GCTCAGGTGG | 1.07
GCTCATATAC | 3.04
GCTCCAGATG | 1.43
GCTCCGGAGC | 1.06
GCTCGAAAAA | 0.995
GCTCGACCGT | 1
GCTCGCCCC | 1.13
GCTCGCCCTA | 0.989
GCTCGGAATG | 1.04
GCTCGGATCG | 0.954
GCTCGTGGTT | 1.02
GCTCTCATCT | 0.989
GCTCTCTGAA | 1.03
GCTCTGGGAT | 1.33
GCTCTTTGGA | 0.975
GCTGAGCCAG | 0.998

Sequence | switch fluorescence ratio
GCTGATAAAA | 0.988
GCTGATACCA | 0.976
GCTGATGATG | 0.998
GCTGATGGAA | 1.05
GCTGATTAAC | 1.03
GCTGCAATTG | 1.23
GCTGCAGTAA | 0.996
GCTGCATAAT | 1.06
GCTGCCGGCG | 0.995
GCTGCGAAAA | 0.968
GCTGCGGTGG | 1.03
GCTGCTAGTT | 1.08
GCTGCTGGT | 1
GCTGGAGTGC | 1.1
GCTGGAGTTC | 0.981
GCTGGATGAG | 0.996
GCTGGCAAGA | 1
GCTGGCATGC | 0.99
GCTGGCCCCA | 1.02
GCTGGGAACA | 0.992
GCTGGGCTGG | 1.01
GCTGGTGGTC | 1
GCTGTACGAC | 3.5
GCTGTCCTCT | 0.973
GCTGTCGTTG | 1.02

Sequence | switch fluorescence ratio
GCTGTGAGGG | 1
GCTGTGGCTA | 0.979
GCTTAACAAC | 1.01
GCTTAATGGT | 0.987
GCTTACAGC | 0.992
GCTTATCGCA | 1.05
GCTTATTGGT | 0.94
GCTTCACGAG | 0.988
GCTTCAGCGG | 0.985
GCTTCAGGTA | 1.02
GCTTCATACG | 1.98
GCTTCCAGTG | 1.15
GCTTCCTGTA | 1.06
GCTTCGGAAA | 1.02
GCTTCGTCGC | 1.2
GCTTCTCCGT | 2.12
GCTTGAATGC | 1.03
GCTTGCAGGT | 0.997
GCTTGCATGT | 0.988
GCTTGGCACG | 1.01
GCTTGGGGGC | 0.96
GCTTTACGCC | 0.994
GCTTTATCAG | 0.966
GCTTTGACAC | 0.976
GCTTTGGAA | 1.05

Sequence | switch fluorescence ratio
GCTTTGGCTG | 0.99
GCTTTGTACC | 1.03
GCTTTTCAAC | 1.02
GCTTTTCAGG | 1.03
GCTTTTCCAC | 0.971
GGAAAAAAAT | 0.923
GGAAAATCAC | 1.03
GGAAAATTCC | 1.11
GGAAACAGTA | 1.16
GGAAACATAA | 0.987
GGAAAGCGCA | 1.02
GGAAATTTTC | 1.03
GGAACCAAAC | 1.05
GGAACCGAGT | 1.01
GGAACCGATC | 1.98
GGAACTGGTC | 1.01
GGAAGGTAAA | 1.06
GGAAGTGCAA | 1.03
GGAAGTGCAG | 0.984
GGAATCAAAA | 0.949
GGAATCAACG | 0.994
GGAATGCTGT | 0.993
GGAATTCGTC | 0.972
GGACACCGAG | 1.06
GGACACGACA | 1.19

Sequence | switch fluorescence ratio
GGACACTGGG | 0.89
GGACATTTGT | 0.976
GGACCACTTC | 1.03
GGACCCAACT | 1.04
GGACCTCATG | 1.05
GGACGAATCT | 1
GGACGAGCGG | 0.963
GGACGAGTGG | 0.955
GGACGTAGCA | 1.3
GGACGTTACA | 1.61
GGACTAAGGC | 1.02
GGACTAGCTG | 0.948
GGACTATAGG | 0.92
GGACTCTATG | 1.01
GGACTCTGCA | 1.76
GGACTGGGAA | 0.958
GGACTTCCA | 0.961
GGACTTGGAT | 0.974
GGACTTTGCC | 1.03
GGAGAATGAG | 0.982
GGAGACGATT | 1.01
GGAGAGACGG | 0.929
GGAGAGACTC | 0.832
GGAGAGAGAT | 0.985
GGAGAGGTCG | 1.05

Sequence | switch fluorescence ratio
GGAGAGTCAC | 0.967
GGAGATCTTC | 0.971
GGAGCAAACA | 2.41
GGAGCACTT | 1.14
GGAGCGCGGA | 1.05
GGAGGAGGAT | 0.964
GGAGGCGTCA | 1.03
GGAGGCTCTG | 0.974
GGAGGGATAC | 3.74
GGAGGGATGA | 1.01
GGAGGGGTTC | 0.961
GGAGGTCGCT | 1.03
GGAGGTGGA | 1.02
GGAGTACAGC | 1.08
GGAGTATACC | 0.98
GGAGTCGTAG | 1.01
GGAGTGAGCT | 1.03
GGAGTGTATC | 1.03
GGATAAAAGC | 0.971
GGATAAGATA | 0.961
GGATAAGGAT | 1.02
GGATACAGGT | 1.01
GGATACGAA | 1.01
GGATACGCTT | 1.14
GGATACTTTC | 0.993
